The whole screen tested about 320,000 compounds, of which about 200 (0.062%) were called active. Inconclusive results, whose numbers are uncertain, are shown with a selection of clear calls. The call rests on the fitted dose curve; in most records, active means well fitted activation curve with a large enough effect; inconclusive means small, poorly fitted or top-dose-only effect; inactive means no such curve, though single readings can be large or run the other way. No potency is given beside an inconclusive call; the fits are too rough.
experiment: qHTS assay for re-activators of p53 using a Luc reporter; conditions: H1299 p53-A138V BP100-luciferase reporter, luminescence, 24 h; series mostly up to 92.2 µM; activity change, positive = activation: at the top concentration; further: nearly all actives have a fitted effect of over 45% in size; on activity change, positive = activation: % of control where 0% means no effect
Method in brief: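 p53-null H1299 cells stably carrying temperature-sensitive p53-A138V and a BP100-luciferase reporter were pinned with compounds (4-point, 1:5 series) and held 24 hrs at 37 deg C. Luminescence was read 10 min after detection reagent.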
Potency means the concentration at half of the fitted maximal effect; tags describe the fitted curve by direction and shape.

SMILES	Potency	activity change, positive = activation
COc1cccc(C(=O)Nc2cc3c(cc2Cl)OCCCO3)c1	inconclusive [activator, partial curve, poor fit]	
CC(=O)Nc1cccc(NC(=O)COc2ccc3c(c2)CCC3)c1	inconclusive [activator, single point]	
O=C(CCl)N=c1sccn1Cc1cccc2ccccc12		inactive: -10.7%
COc1ccc2[nH]c(=O)c(-c3noc(-c4ccc(F)cc4)n3)cc2c1	inconclusive [activator, single point]	
CCCN1CCN(CCCNC(=O)C2CCN(c3nnc(-n4c(C)ccc4C)s3)CC2)CC1	inconclusive [activator, single point]	
O=C(c1ccc(Cl)cc1)c1ccc(OCC(=O)N2CCOCC2)cc1		inactive: 10.2%
CCCn1c(C)cc(C(=O)COC(=O)c2nccnc2N)c1C		inactive: 7.3%
O=C(N/N=C/C(Br)=C\c1ccccc1)c1ccco1	inconclusive [activator, partial curve, poor fit]	
Cc1ccc(-c2nnc(N(C)C(=O)c3ccccn3)s2)cn1	inconclusive [activator, partial curve, poor fit]	
CCCCCNC(=O)N[C@H](C(=O)O)C(C)C	inconclusive [activator, partial curve, poor fit]	
CCn1c(N2CCN(Cc3ccc([N+](=O)[O-])cc3)CC2)nc2ccccc21		inactive: 2.71%
CN(Cc1ccc(Cl)cc1)C(=O)CCl		inactive: -12%
Oc1ccccc1N=Cc1c(O)ccc2ccccc12		inactive: 8.85%
Cc1ccc(S(=O)(=O)c2cn(C)c3cc(N4CCN(C)CC4)c(F)cc3c2=O)c(C)c1	inconclusive [activator, partial curve, poor fit]	
COc1ccc(-n2c(C)cc(/C=C3\SC(=O)NC3=O)c2C)cc1	inconclusive [activator, full curve, poor fit]	
CCOC(=O)N1CCC(Nc2nc3ccccc3nc2NS(=O)(=O)c2ccc(Cl)cc2)CC1	inconclusive [activator, single point]	
CCOC(=O)c1[nH]c2ccc(OC)cc2c1NC(=O)CCN1CCC(C)CC1		inactive: 1.77%
Cc1cc(Nc2nc3ccccc3nc2Cl)n(-c2ccccc2)n1	inconclusive [activator, partial curve, poor fit]	
COC(=O)c1cccc(NC(=O)c2onc3c2CCCC3)c1	inconclusive [activator, partial curve, poor fit]	
CC(=O)c1ccc(Nc2ccc(-c3ccccc3F)nn2)cc1	inconclusive [activator, partial curve, poor fit]	
CSc1nnc2n(C)c3c(c(=O)n12)C1(CCCC1)Cc1ccccc1-3		inactive: -2.29%
CCCCOC(=O)c1ccc(OC(=O)N2CCOCC2)cc1	inconclusive [activator, partial curve, poor fit]	
Nc1nc(N2CCCCC2)nc2ccccc12	inconclusive [activator, single point]	
N#Cc1ccccc1NC(=O)CN1CCN(c2ccccn2)CC1		inactive: -3.88%

SMILES	Potency	activity change, positive = activation
CCOC(=O)c1c(-c2ccccc2)nc2ccccn12		inactive: -3.41%
O=C(Nc1ccccc1)c1ccc(NCCc2ccccc2)c([N+](=O)[O-])c1		inactive: 18.7%
O=C(CC1Nc2ccccc2NC1=O)c1ccccc1 (stereo not given)	inconclusive [activator, full curve, poor fit]	
Cc1ccc(OC(F)F)c(NC(=O)Nc2cccc(C(F)(F)F)c2)c1		inactive: -0.0906%
Cc1ccc(-n2nc3ccc(NC(=O)c4ccco4)cc3n2)cc1		inactive: 25.3%
Fc1cccc2sc(Nc3nnc(-c4ccccc4)o3)nc12	inconclusive [activator, full curve, poor fit]	
COc1ccc(C(=O)c2ccc(N(C)C)cc2)c2ccccc12	inconclusive [activator, partial curve, poor fit]	
CCOC(=O)c1ccc(NC(=O)C2CCCN(c3cnccn3)C2)cc1 (stereo not given)	inconclusive [activator, partial curve, poor fit]	
COC(=O)C1=C(C)N(C(C)c2ccccc2)C(=O)C1 (stereo not given)	inconclusive [activator, partial curve, poor fit]	
C=CCn1c(CNC(=O)c2ccccc2C)nnc1SCC(=O)NC1CCCC1	inconclusive [activator, single point]	
O=C(Nc1ccc(Cl)cc1)Nc1cccc2nsnc12	inconclusive [activator, partial curve, poor fit]	
COc1ncccc1-c1nnn(-c2ccc(Cl)c(Cl)c2)n1	inconclusive [activator, full curve, poor fit]	
COC(=O)c1ccc(/C=C/C(=O)c2ccc(OC)cc2)cc1		inactive: 10.3%
CN(C)c1ccc(N=Nc2ccccc2C(=O)OCC(=O)Nc2ccccc2C(F)(F)F)cc1	inconclusive [activator, partial curve, poor fit]	
Cc1nc2c(cc(Oc3ccc(S(=O)(=O)N4CCOCC4)cn3)c3ccsc32)s1	inconclusive [activator, partial curve, poor fit]	
Cc1ccc(C)n1-c1ccc(-n2cnnn2)cc1	inconclusive [activator, single point]	
CN(C(=O)COC(=O)C1CCN(S(=O)(=O)c2c(Cl)cccc2Cl)CC1)C1CCCCC1		inactive: -0.687%
O=C(NCc1ccc(F)cc1)c1ccc2c(=O)n3c(nc2c1)CCCCC3		inactive: 4.46%
CN(c1cc(=O)n2ccccc2n1)C1CCCCC1	inconclusive [activator, full curve, poor fit]	
C/C(=N\NC(=O)c1ccccc1)c1ccc(NC(=O)c2cccs2)cc1	inconclusive [activator, partial curve, poor fit]	
O=c1[nH]c(CCl)nc2cc(-c3ccc(F)cc3)sc12	inconclusive [activator, partial curve, poor fit]	
O=C1NCCN(Cc2ccc(Cl)c(F)c2)C1CC(=O)N1CCCO1 (stereo not given)	inconclusive [activator, single point]	
Cc1sc(NC(=O)c2ccco2)c(CN2CCN(c3ccccc3)CC2)c1C		inactive: 7.39%
CCCCC(=O)Nc1sc2c(c1C(N)=O)CCC2	inconclusive [activator, partial curve, poor fit]	

SMILES	Potency	activity change, positive = activation
CC1(C)Cc2c(sc3nc(-c4cc5ccccc5o4)n(N)c(=O)c23)CO1	inconclusive [activator, partial curve, poor fit]	
COC(=O)c1c(-c2cccnc2)csc1NC(=O)c1cc(C)on1	inconclusive [activator, partial curve, poor fit]	
CN1C[C@@H]2C(c3ccc(Cl)nc3)C3(c4ccc(C#N)cc4)CC2(C3)[C@H]1c1ccccc1 (stereo not given in full)		inactive: 1.16%
Cn1ncc(Cl)c(Oc2ccc(C(C)(C)C)cc2)c1=O	inconclusive [activator, partial curve, poor fit]	
COc1ccc(NC(=O)c2cc([N+](=O)[O-])ccc2N2CCCCC2)cc1OC		inactive: -5.58%
COCCn1nnnc1CN(CCCN1CCOCC1)Cc1cc2c(C)ccc(C)c2[nH]c1=O	inconclusive [activator, partial curve, poor fit]	
COc1cc(/C=c2\sc3nc(-c4ccncc4)nn3c2=O)ccc1OC(C)=O	inconclusive [activator, partial curve, poor fit]	
c1ccc(CSc2nnc(SCc3ccccn3)s2)nc1	inconclusive [activator, single point]	
COC(=O)c1cccc(NC(=O)C2COc3ccccc3O2)c1 (stereo not given)	inconclusive [activator, partial curve, poor fit]	
CCc1ccccc1NC(=S)/N=C(\N)Nc1nc(C)c2cc(C)ccc2n1	inconclusive [activator, single point]	
Cc1cc(C)cc(NC(=S)Nc2ccccn2)c1	inconclusive [activator, single point]	
C=CCNC(=O)c1c(N)n(-c2ccc3c(c2)OCO3)c2nc3ccccc3nc12		inactive: -4.03%
CCCOC(=O)c1ccc(NC(=O)C2CCCO2)cc1 (stereo not given)	inconclusive [activator, full curve, poor fit]	
C=CCNC(=S)Nc1ccc(C)cc1[N+](=O)[O-]	inconclusive [activator, single point]	
CCc1sc(C(=O)Nc2ccc3c(c2)OCO3)cc1C	inconclusive [activator, partial curve, poor fit]	
COc1ccc(C(=O)N/N=C(\c2ccccc2)c2ccccn2)cc1	inconclusive [activator, single point]	
Cc1cc(O)cc2c1C(=O)/C(=C/c1ccco1)O2	inconclusive [activator, full curve, poor fit]	
Cc1cc(NC(=O)CSc2nc3ccccc3c(=O)n2Cc2ccc(F)cc2)no1		inactive: -1.86%
CCCCn1c2c(c(=N)c3ccccc31)CCC2		inactive: 1.1%
O=C(Cn1cc([N+](=O)[O-])cn1)Nc1ccc(Cn2cc(Br)cn2)cc1		inactive: -6.17%
Oc1ccc(/C=N/Nc2nccnc2Cl)c(O)c1	inconclusive [activator, full curve, poor fit]	
Cc1c(N=Cc2nc3ccccc3n2C)c(=O)n(-c2ccccc2)n1C		inactive: 5.83%
